Out of some 50,000 compounds screened, about 800 (1.6%) showed an effect of 50% or more. Some of the results follow.
The compounds below were run against Bcl-2-like protein 10 (Homo sapiens) (UniProt Q9HD36) (assay: TR3 peptide-Bcl-B binding displacers, biochemical primary FP assay, phenotype converters (AID 1240;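 also: 0% = Bcl-B with tracer peptide and DMSO and 100% = tracer peptide lacking Bcl-B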)). Conditions: GST-Bcl-B / FITC-TR3 peptide fluorescence polarization; stronger effect = higher value; compound at 3.75 mg/L.
Sequence of UniProt Q9HD36 (Q9HD36 whole entry, looked up): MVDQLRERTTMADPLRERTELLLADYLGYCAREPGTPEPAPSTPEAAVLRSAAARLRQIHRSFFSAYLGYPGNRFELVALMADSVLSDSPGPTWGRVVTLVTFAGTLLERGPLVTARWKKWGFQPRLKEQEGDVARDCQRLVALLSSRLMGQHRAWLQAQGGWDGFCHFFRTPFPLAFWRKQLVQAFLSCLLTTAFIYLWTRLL
Work on C=CCn1c(SCC(=O)N2CCCCC2)nc2sc3c(c2c1=O)CCC3 yielded a displacement of 2.5%.
In the case of COC(=O)c1c(NC(=O)c2cccc([N+](=O)[O-])c2)sc2c1C(C(=O)OC)CC2 (stereo not given), the displacement is reported as 0.7%.
Work on CS(=O)(=O)N1CCN(Cc2cccc(F)c2)CC1 yielded a displacement of 0%.
In the case of CCC(=O)Nc1ccc(NC(=O)c2ccc(OC)c(Br)c2)cc1, the displacement is reported as 0.9%.
For COC(=O)C1=C(C)NC2=C(C(=O)CCC2)C1c1ccc(OC(C)=O)cc1 (stereo not given), the displacement was 8.4%.
Work on COC(=O)c1c(C)oc2ccc(OC(=O)N3CCOCC3)cc12 yielded a displacement of 9.4%.
In the case of CCc1ccc(/C=C2/SC(=S)N(CC(=O)Nc3nc4ccccc4s3)C2=O)cc1, the displacement is reported as -11.8%.
For O=C(/C=C/c1ccccc1)c1ccc([N+](=O)[O-])o1, the displacement was 1.6%.
CC(Oc1ccccc1)C(=O)NCc1ccccn1 (stereo not given) gave a displacement of 6.8%.
Compound O=[N+]([O-])c1ccc(C2Nc3c(cccc3[N+](=O)[O-])C3C=CCC32)cc1 (stereo not given) has a displacement of 7.1%.
For O=C(N/N=C/c1ccco1)C1CC(=O)N(c2ccccc2)C1 (stereo not given), the displacement was -12.2%.
Compound COC(=O)c1ccc(NC(=O)C(C)Oc2ccc(Cl)cc2C)cc1 (stereo not given) has a displacement of -2.3%.
O=C1Nc2ccc(S(=O)(=O)Nc3ccc(O)c(-c4c(O)ccc5ccccc45)c3)c3cccc1c23 showed a displacement of 2%.
Cc1cc(C)n(-c2ccc(N3CCOCC3)nn2)n1 gave a displacement of -4.5%.
CC1(C(=O)O)CC(=O)N=C2C=CC=CN21 (stereo not given) was tested, and the displacement was 4.9%.
COc1ccc(C2CC(=O)C3=C(C2)Nc2ccccc2NC3c2cccc(Cl)c2)cc1 (stereo not given) showed a displacement of 2.3%.
With COc1ccc(N(CC(=O)N/N=C/c2ccco2)S(=O)(=O)c2ccccc2)cc1 the displacement was 20.8%.
O=C(CNC(=O)c1ccc(Cl)cc1Cl)c1ccccc1 showed a displacement of -7.4%.
For CC1(C)Oc2c(C(C)(C)C)cc([N+](=O)[O-])c(C(C)(C)C)c2O1, the displacement was 1%.
COc1ccc(N(C(C)C(=O)O)S(C)(=O)=O)cc1 (stereo not given) showed a displacement of -3.1%.
O=C(O)c1cccc(NC(=O)c2ccccc2F)c1 showed a displacement of -2.3%.
COc1ccccc1C(=O)N1CCN(Cc2cc(OC)c(OC)c(OC)c2)CC1 gave a displacement of -5.8%.
Compound O=C(COc1ccc(Br)cc1)Nc1cccc(C(F)(F)F)c1 has a displacement of 3.7%.
N#CCN(CC#N)C(=O)CCCOc1ccc(Cl)cc1Cl was tested, and the displacement was -8.4%.
Compound O=C(Nc1nccs1)c1cc(-c2cccc(Br)c2)nc2ccccc12 has a displacement of 2.1%.
For Cc1ccc(S(=O)(=O)NCc2ccccn2)cc1[N+](=O)[O-], the displacement was -8.4%.
O=C1NN(c2ccccc2)C(=O)/C1=C/c1cccc(O)c1 gave a displacement of -1.7%.
In the case of Cc1ccc(OCC(=O)N2CCN(c3ccc([N+](=O)[O-])cc3)CC2)cc1, the displacement is reported as 11.9%.
COCC(COCCCN=C1NS(=O)(=O)c2ccccc21)OC (stereo not given) was tested, and the displacement was 6.1%.
For COc1ccc(NC(=O)c2cc3n(n2)C(C(F)(F)F)CC(c2ccc(F)cc2)N3)cc1OC (stereo not given), the displacement was 5.3%.
In the case of Cc1cc(SCc2ccccc2)n2ncnc2n1, the displacement is reported as -0.1%.
In the case of COc1ccc(/C(O)=C2/C(=O)C(=O)N(CCCCCC(=O)O)C2c2ccc([N+](=O)[O-])cc2)cc1 (stereo not given), the displacement is reported as -12%.
CC(C)(C)c1ccc(C(=O)Nc2ccc(NC(=O)c3ccc4c(c3)OCCO4)cc2)cc1 showed a displacement of 1.6%.
With CN1CCN(c2ccc(C(=O)c3cccc(F)c3)cc2)CC1 the displacement was -2.6%.
With O=S(=O)(NCc1ccccc1Cl)c1ccc2ccccc2c1 the displacement was -6.7%.
In the case of Cc1cc(C)c2oc(-c3ccc(NC(=O)c4cccnc4)cc3O)nc2c1, the displacement is reported as 7.2%.
COc1ccc(-c2cc(=O)n3[nH]c(-c4cccc(F)c4)cc3n2)cc1 gave a displacement of 8.5%.
For FC(F)(F)c1ccc(CN2CCN(Cc3ccco3)CC2)cc1, the displacement was -36.1%.
Work on CN(C)c1ccc(NC(=O)c2ccccc2Cl)cc1 yielded a displacement of 6.5%.
Work on O=S(=O)(c1ccc(-c2ccccc2)cc1)N1CCSC1c1ccccc1 (stereo not given) yielded a displacement of 4.8%.
In the case of CSc1ccc(/C=C(/C#N)C(=O)Nc2cccc(Br)c2)cc1, the displacement is reported as 80.3%.
Cc1ccc(C2=C/C(=C/c3cc4c(cc3Br)OCO4)C(=O)O2)cc1 gave a displacement of -1.3%.
CCOC(=O)N1CCN(S(=O)(=O)c2ccc(C)cc2)C1 showed a displacement of 10.6%.
With O=C(/C=C/c1ccc([N+](=O)[O-])cc1)NCCSc1ccccn1 the displacement was -5%.
CCc1cc(=O)oc2cc(OCc3ccc(C)cc3)ccc12 gave a displacement of 0%.
CS(=O)(=O)N(CC(=O)Nc1ccccc1Cl)c1cc(Cl)cc(Cl)c1 gave a displacement of -7.7%.
For CCN1C(=O)/C(=C\c2ccc(OCCOc3cccc(OC)c3)cc2)SC1=S, the displacement was 10.9%.
Work on O=S(=O)(CCc1nc2ccccc2[nH]1)c1ccc(Cl)cc1 yielded a displacement of -3.8%.
For CCCOc1ccc(-c2cc(C(=O)NCCCN3CCOCC3)c3ccccc3n2)cc1, the displacement was 1%.
In the case of O=C(Cc1ccccc1)Nc1ccc2c(c1)OCCO2, the displacement is reported as 15.3%.
Compound CCOC(=O)C1=C(O)CSC1=Nc1ccc(OC)cc1 has a displacement of -13%.
COc1ccc(CC(=O)Nc2ccc(Br)cc2F)cc1OC was tested, and the displacement was -1.7%.
COc1ccc(/C(C)=N\OCc2nc3c4c5c(sc4ncn3n2)C(C)(C)NC(C)(C)C5)cc1OC gave a displacement of -9.8%.
Work on Cc1ccc(C(O)c2nc3ccccc3n2C(C)C)cc1 (stereo not given) yielded a displacement of -9.1%.
Work on COc1ccc(NC(=O)C(C)c2ccc(CC(C)C)cc2)cc1 (stereo not given) yielded a displacement of 14.9%.
Compound COC(=O)c1ccccc1NC(=O)c1cc(=O)[nH]c2ccccc12 has a displacement of 8.9%.
With COc1ccccc1OCc1ccc(C(=O)O)cc1 the displacement was -5.2%.
With C/C(=N/NC(=O)c1cccc(Br)c1)c1ccccc1O the displacement was -7.3%.
O=C(Oc1cc(-c2ccccc2)c2oc(=O)sc2c1)c1ccccc1 gave a displacement of 1.6%.
In the case of CCOC(=O)c1c(NC(=O)CCCOc2ccc(Cl)cc2Cl)sc(C)c1C, the displacement is reported as 8.1%.
In the case of O=C(Oc1ccc(-c2ccccc2)cc1)c1ccccc1[N+](=O)[O-], the displacement is reported as 3%.
For C/C(=N\N=C1\NC(=O)C(CC(=O)Nc2cccc(C)c2C)S1)c1ccccc1 (stereo not given), the displacement was 8.6%.
O=C(Nc1ccccc1C(=O)Nc1ccccc1I)c1ccccc1 showed a displacement of 11.1%.
In the case of CCOc1ccc(NC(=S)NC(NC(=O)c2ccc(Br)cc2)C(Cl)(Cl)Cl)cc1 (stereo not given), the displacement is reported as -5.8%.
CCOC(=O)C1=C(O)/C(=C/c2cccs2)SC1=Nc1cccc(Cl)c1 showed a displacement of -3.3%.
For Cc1nc(NNC(=O)c2ccc(Cl)cc2)cc(-c2ccccc2)n1, the displacement was -7.4%.
With CN(c1ccc(C(=O)Nc2cccnc2)cc1)S(=O)(=O)c1ccccc1 the displacement was 3.9%.
In the case of O=C(Nc1cccc2nsnc12)c1ccc(Cl)cc1Cl, the displacement is reported as 0.8%.
Compound O=C(NC1CCSC1=O)c1ccc(-c2ccccc2)cc1 (stereo not given) has a displacement of -7%.
For Cc1cccc(N2C(=O)NC(=O)/C(=C/c3cccn3-c3ccc([N+](=O)[O-])cc3)C2=O)c1, the displacement was -12.8%.
